In all, about 310,000 compounds went through this assay and about 14,000 (4.5%) showed an effect of 50% or more. The effect is printed as a negative number. The list shows a part of the results.
target: human ether-à-go-go-related gene (hERG) potassium channel (human, UniProt Q12809); test: primary screen, population patch clamp on CHO cells stably expressing hERG
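Further: peak tail current of the secondary pulse compared with the same well before compound.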

Chain of human ether-à-go-go-related gene (hERG) potassium channel (Q12809 whole entry, looked up): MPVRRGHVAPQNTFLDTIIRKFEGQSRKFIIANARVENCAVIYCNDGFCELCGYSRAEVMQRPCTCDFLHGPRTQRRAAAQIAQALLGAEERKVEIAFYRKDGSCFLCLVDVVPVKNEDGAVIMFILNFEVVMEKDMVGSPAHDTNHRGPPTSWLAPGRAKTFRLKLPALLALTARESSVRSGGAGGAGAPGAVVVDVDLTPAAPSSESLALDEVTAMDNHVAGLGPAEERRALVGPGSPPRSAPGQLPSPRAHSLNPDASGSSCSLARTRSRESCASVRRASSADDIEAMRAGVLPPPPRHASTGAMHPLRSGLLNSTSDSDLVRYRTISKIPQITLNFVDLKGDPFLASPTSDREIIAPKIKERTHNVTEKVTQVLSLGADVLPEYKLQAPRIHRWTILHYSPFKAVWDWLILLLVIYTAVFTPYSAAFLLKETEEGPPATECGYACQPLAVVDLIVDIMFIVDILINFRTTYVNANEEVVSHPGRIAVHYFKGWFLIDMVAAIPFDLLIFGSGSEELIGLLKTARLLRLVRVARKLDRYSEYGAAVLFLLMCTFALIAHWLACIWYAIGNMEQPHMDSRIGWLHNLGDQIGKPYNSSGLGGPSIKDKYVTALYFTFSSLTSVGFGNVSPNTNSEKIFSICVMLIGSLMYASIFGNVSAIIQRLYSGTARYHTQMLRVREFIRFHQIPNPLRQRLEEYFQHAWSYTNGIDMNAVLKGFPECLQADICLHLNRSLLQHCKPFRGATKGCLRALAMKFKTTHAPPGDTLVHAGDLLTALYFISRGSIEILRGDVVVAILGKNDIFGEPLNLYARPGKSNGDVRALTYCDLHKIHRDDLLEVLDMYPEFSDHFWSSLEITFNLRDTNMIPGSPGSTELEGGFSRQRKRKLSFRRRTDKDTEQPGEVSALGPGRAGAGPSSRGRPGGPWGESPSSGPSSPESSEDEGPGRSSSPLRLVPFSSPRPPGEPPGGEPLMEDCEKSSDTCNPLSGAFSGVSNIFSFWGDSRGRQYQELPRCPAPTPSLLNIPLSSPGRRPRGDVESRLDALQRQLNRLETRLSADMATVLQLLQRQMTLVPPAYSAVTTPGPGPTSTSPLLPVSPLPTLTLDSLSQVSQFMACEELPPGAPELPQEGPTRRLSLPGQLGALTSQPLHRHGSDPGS

First: COc1cccc(CN2CCN(C(=O)c3cccc(OC)c3)CC2)c1.O=C(O)C(=O)O
Second: CCOc1ccc(OCC)c(NC(=O)CN2CCN(C(=O)c3ccco3)CC2)c1
The “hERG current change (%, negative = inhibition) at 10uM” value of the first is higher: 9.62% for the first, -59% for the second.

Going from `CC(OC(=O)c1ccco1)C(=O)NC1CCCCC1` (stereo not drawn) to `Cc1cc(C)cc(N(C(=O)c2csnn2)C(C(=O)NC2CCCCC2)c2cccnc2)c1` (stereo not drawn), the “hERG current change (%, negative = inhibition) at 10uM” value rises from -3.72% to 4.35%.

Going from `Cc1onc(-c2ccccc2)c1C(=O)N1CCC(C)CC1` to `O=C(c1c(F)cccc1F)N1CCCc2ccccc21`, the “hERG current change (%, negative = inhibition) at 10uM” value rises from 3.2% to 12%.

First: O=C(Nc1ncccc1O)c1ccc2ccccc2c1
Second: O=C(Nc1ccc(NC(=O)c2ccccc2F)cn1)c1ccco1
The “hERG current change (%, negative = inhibition) at 10uM” value of the first is higher: 17% for the first, 8.52% for the second.

Going from `Cc1cccc(C)c1OCc1cc(C(=O)N2CCCC2c2nonc2C)no1` (stereo not drawn) to `CC(=O)c1cccc(OCc2cc(C(=O)N3CC4C[C@@H]5CC3C[C@H](C4)C5)no2)c1`, the “hERG current change (%, negative = inhibition) at 10uM” value falls from 2.3% to 1.43%.

Compared with `COc1ccc(S(=O)(=O)NCc2ccncc2)cc1NC(=O)c1ccccc1C`, `COc1ccc(C)cc1NC(=O)C(=O)NNC(=O)COc1ccc(Cl)cc1` is higher in “hERG current change (%, negative = inhibition) at 10uM” value: -36.6% for the first, 29.3% for the second.

Going from `COc1ccc(C)cc1NC(=O)c1nn(C)c(C(=O)Nc2cc(C)ccc2OC)c1[N+](=O)[O-]` to `COc1ccc(CC(=O)Nc2ccc(NC(=O)c3ccc(Br)cc3)cc2)cc1OC`, the “hERG current change (%, negative = inhibition) at 10uM” value rises from 1.17% to 20.1%.

Going from `CN(C)Cc1c(C(=O)N/N=C/c2cccc(OCc3ccc(F)cc3)c2)nnn1-c1nonc1N` to `O=c1cc(-c2ccccc2)nc(SCc2ccc(F)cc2)[nH]1`, the “hERG current change (%, negative = inhibition) at 10uM” value falls from 19.7% to 3.26%.

Going from `O=Nc1c(O)n(Cc2ccccc2)c2ccccc12` to `O=C(c1cc(=O)c2ccccc2o1)N(Cc1ccccc1)C1CCS(=O)(=O)C1` (stereo not drawn), the “hERG current change (%, negative = inhibition) at 10uM” value rises from -18.7% to -13.9%.

Going from `OCCC1CN(Cc2ccon2)CCN1Cc1ccccc1` (stereo not drawn) to `O=C(CSc1ccccc1)NCCCN1CCOCC1`, the “hERG current change (%, negative = inhibition) at 10uM” value falls from 9.42% to 6.79%.

Compared with `Cc1ccsc1C(=O)OCC(=O)Nc1cccc(S(=O)(=O)N2CCOCC2)c1`, `COc1ccc(CC(=O)N(C)Cc2ccc(C(C)(C)C)cc2)cc1S(=O)(=O)N1CCOCC1` is higher in “hERG current change (%, negative = inhibition) at 10uM” value: -45.1% for the first, -33.6% for the second.

First: CCOC(=O)c1ccc(NC(=O)c2nc[nH]c2C(=O)NC)cc1
Second: CCOC(=O)c1c(NC(=O)c2cccnc2)sc(C)c1C
The “hERG current change (%, negative = inhibition) at 10uM” value of the first is higher: 16.6% for the first, -12.1% for the second.

First: Cc1ccc(CNC(=O)c2ccc([N+](=O)[O-])o2)cc1
Second: Cc1ccc(CSCCC(=O)NCCc2ccc(Cl)cc2)cc1
The “hERG current change (%, negative = inhibition) at 10uM” value of the first is higher: -1.48% for the first, -9.69% for the second.

Going from `Nc1ccc(C(=O)Nc2nccs2)cc1` to `Oc1ccc(-c2csc(Nc3ccccn3)n2)cc1`, the “hERG current change (%, negative = inhibition) at 10uM” value falls from 22.4% to 13%.

First: CN(C)c1oc(/C=C/c2cccs2)nc1S(=O)(=O)c1ccccc1
Second: Cc1ccccc1OCCC(=O)Nc1ccc(S(=O)(=O)N(C)C2CCN(C)CC2)cc1
The “hERG current change (%, negative = inhibition) at 10uM” value of the first is lower: -2.69% for the first, 30% for the second.

Compared with `Cc1ccccc1NC(=O)CSc1nnnn1C`, `Cc1cc(NC(=O)CSc2nc3ccccc3c(=O)n2CCCC(=O)NCc2ccco2)n[nH]1` is lower in “hERG current change (%, negative = inhibition) at 10uM” value: 6.94% for the first, -7% for the second.

First: Nc1nc(COc2ccc(F)cc2Cl)nc(N2CCCCC2)n1
Second: c1csc(-c2nc(N3CCCCC3)no2)c1
The “hERG current change (%, negative = inhibition) at 10uM” value of the first is lower: 7.88% for the first, 20.6% for the second.

Going from `COc1cccc(-c2csc(N3CCN(C(=S)Nc4ccc(Cl)cc4)CC3)n2)c1` to `FC(F)(F)c1cc(-c2ccco2)nc(N2CCN(c3ccccc3)CC2)n1`, the “hERG current change (%, negative = inhibition) at 10uM” value falls from 6.14% to 1.67%.

First: CCn1c(SCc2ccc([N+](=O)[O-])cc2)nnc1C(C)NC(=O)c1ccc(C)cc1 (stereo not drawn)
Second: Cc1nc(-c2ccc(Cl)cc2)sc1C(=O)CBr
The “hERG current change (%, negative = inhibition) at 10uM” value of the first is lower: -33.6% for the first, -1.74% for the second.

First: CSC1=C(C#N)C(c2ccc(C)s2)CC(=O)N1 (stereo not drawn)
Second: CCCCN(C)C(=O)c1cc2c(Cl)nc3ccccc3c2s1
The “hERG current change (%, negative = inhibition) at 10uM” value of the first is lower: -10.5% for the first, -4.12% for the second.

Compared with `CCNC(=S)NCc1ccc(OC)c(OC)c1`, `COc1cc(NC(=S)N2CCCCC2C)c(OC)cc1Cl` (stereo not drawn) is lower in “hERG current change (%, negative = inhibition) at 10uM” value: 24% for the first, -5.01% for the second.

Going from `CC(C)S(=O)(=O)c1csc(C(=O)NN)c1Cl` to `Cc1ccc(S(=O)(=O)NCC(=O)N(CC(=O)NC2CCCCC2)CC2CCCO2)cc1` (stereo not drawn), the “hERG current change (%, negative = inhibition) at 10uM” value falls from 3.46% to -7.55%.

In the case of `O=C(CN1N=C(c2ccccc2)CCC1=O)NCCCN1CCc2ccccc2C1`, the “hERG current change (%, negative = inhibition) at 10uM” value is reported as -49.6%.

Reference: publication PMC4336329 (PLoS ONE, 2015)
